From patent US20210205271A1 (The Johns Hopkins University, priority 2018, published 2021)
Some results were stated once for a whole list of compounds, not compound by compound. Some ranges recur; such a range may be that of the whole group of compounds.

Columns and labels:
Type in all cases: in vitro ADME
Conditions in all cases: 60 min incubation
[1] = In vitro stability in mouse jejunum (intestinal) homogenate
Description: (§1) In addition to solubility, all prodrugs were screened for in vitro metabolic stability in mouse jejunum homogenate, liver microsomes and plasma (see Table 3) to characterize their bioconversion to MBZ. The screening paradigm was designed to confirm activation of prodrugs to MBZ following oral administration in these highly metabolic sites. Initial screening was done in mouse jejunum homogenate by incubating the compounds for 60 min. […] Following jejunum stability, the prodrugs were screened in mouse liver microsomes.
(§2) In vitro stability studies were done using mouse jejunum homogenate, mouse liver microsomes or naïve mouse plasma. For mouse jejunum homogenate stability study, washed mouse jejunum was diluted 10-fold in 0.1 M potassium phosphate buffer, and homogenized using probe sonication. Crude homogenate was then aliquoted to 1 mL and the homogenate was spiked with 10 μM of compound. Liver microsome stability assay was performed in 100 mM potassium phosphate buffer, pH 7.4, and reactions were initiated by addition of the liver microsomes to the incubation mixture (compound final concentration was 10 μM; 0.5 mg/mL microsomes). The plasma stability of the prodrugs was determined by spiking (10 μM) of prodrugs in 1 mL of plasma and incubating in an orbital shaker at 37° C. All the stability studies were conducted at predetermined times (0 and 60 min), where 100 μL aliquots of the mixture in triplicate were removed and the reaction was quenched by addition of three times the volume of ice cold acetonitrile spiked with the internal standard (losartan: 0.5 μM). The samples were vortex mixed for 30 sec and centrifuged at 10000×g for 10 min at 4° C. Fifty microliter of the supernatant was diluted with 50 μL water and transferred to a 2504 polypropylene vial sealed with a Teflon cap. Prodrug disappearance was monitored over time using liquid chromatography and tandem mass spectrometry (LC-MS/MS).
(§3) Briefly, prodrugs were analyzed on a Thermo Scientific Accela UPLC system coupled to Accela open autosampler at ambient temperature with an Agilent Eclipse Plus column (100×2.1 mm i.d.) packed with a 1.8 μm C18 stationary phase. The autosampler was temperature controlled and operated at 10° C. The mobile phase used for the chromatographic separation was composed of acetonitrile/water containing 0.1% formic acid and with a flow rate of 0.4 mL/min for 4.5 min using gradient elution. The column effluent was monitored using TSQ Vantage triple-quadrupole mass-spectrometric detector, equipped with an electrospray probe set in the positive ionization mode. Samples were introduced into the ionization source through a heated nebulized probe (350° C.). Disappearance of prodrugs was measured from ratio of peak areas of analyte to IS.

[2] = In vitro stability in mouse liver microsomes
Description: as §1, §2, §3

[3] = In vitro stability in mouse plasma
Description: as §1
In vitro stability studies were done using mouse jejunum homogenate, mouse liver microsomes or naïve mouse plasma. For mouse jejunum homogenate stability study, washed mouse jejunum was diluted 10-fold in 0.1 M potassium phosphate buffer, and homogenized using probe sonication. Crude homogenate was then aliquoted to 1 mL and the homogenate was spiked with 10 μM of compound. Liver microsome stability assay was performed in 100 mM potassium phosphate buffer, pH 7.4, and reactions were initiated by addition of the liver microsomes to the incubation mixture (compound final concentration was 10 μM; 0.5 mg/mL microsomes). The plasma stability of the prodrugs was determined by spiking (10 μM) of prodrugs in 1 mL of plasma and incubating in an orbital shaker at 37° C. […] Prodrug disappearance was monitored over time using liquid chromatography and tandem mass spectrometry (LC-MS/MS).
Briefly, prodrugs were analyzed on a Thermo Scientific Accela UPLC system coupled to Accela open autosampler at ambient temperature with an Agilent Eclipse Plus column (100×2.1 mm i.d.) packed with a 1.8 μm C18 stationary phase. […] The column effluent was monitored using TSQ Vantage triple-quadrupole mass-spectrometric detector, equipped with an electrospray probe set in the positive ionization mode. […] Disappearance of prodrugs was measured from ratio of peak areas of analyte to IS.

In the case of COC(=O)Nc1nc2cc(C(=O)c3ccccc3)ccc2n1COC(=O)OC[C@H]1OC(O)[C@H](O)[C@@H](O)[C@@H]1O (stereo partly drawn) [Compound 9, Methyl (5-benzoyl-1-((((((2R,3S,4S,5R)-3,4,5,6-tetrahydroxytetrahydro-2H-pyran-2-yl)methoxy)carbonyl)oxy)methyl)-1H-benzo[d]imidazol-2-yl)carbamate], the “metabolized in mouse jejunum homogenate” value [1] was over 95% and the “metabolized in mouse liver microsomes” value [2] was 71-86%.

With COC(=O)Nc1nc2cc(C(=O)c3ccccc3)ccc2n1COP(=O)(O)O [Compound 11, Methyl (5-benzoyl-1-((phosphonooxy)methyl)-1H-benzo[d]imidazol-2-yl)carbamate] the “metabolized in mouse jejunum homogenate” value [1] was 63-82%.

With COC(=O)Nc1nc2cc(C(=O)c3ccccc3)ccc2n1COC(=O)C(C)(C)C [Compound 1, (5-Benzoyl-2-((methoxycarbonyl)amino)-1H-benzo[d]imidazol-1-yl)methyl pivalate] the “metabolized in mouse jejunum homogenate” value [1] was 63-82%.

For COC(=O)Nc1nc2cc(C(=O)c3ccccc3)ccc2n1COP(=O)([O-])OCOC(=O)OC(C)C.[Na+] [Compound 12, Methyl (5-benzoyl-1-(((hydroxy(((isopropoxycarbonyl)oxy)methoxy)phosphoryl)oxy)methyl)-1H-benzo[d]imidazol-2-yl)carbamate, sodium salt], the “metabolized in mouse jejunum homogenate” value [1] was over 95%, the “metabolized in mouse liver microsomes” value [2] was 71-86% and the “metabolized in mouse plasma” value [3] was under 30%.

In the case of COC(=O)Nc1nc2cc(C(=O)c3ccccc3)ccc2n1COC(=O)CNC(=O)[C@H](CC(C)C)NC(C)=O [Compound 7, (5-Benzoyl-2-((methoxycarbonyl)amino)-1H-benzo[d]imidazol-1-yl)methyl acetyl-L-leucylglycinate], the “metabolized in mouse jejunum homogenate” value [1] was 63-82%, the “metabolized in mouse liver microsomes” value [2] was 71-86% and the “metabolized in mouse plasma” value [3] was over 95%.

For COC(=O)Nc1nc2cc(C(=O)c3ccccc3)ccc2n1COC(=O)CCC(=O)O [Compound 8, 4-((5-Benzoyl-2-((methoxycarbonyl)amino)-1H-benzo[d]imidazol-1-yl)methoxy)-4-oxobutanoic acid], the “metabolized in mouse jejunum homogenate” value [1] was 63-82%, the “metabolized in mouse liver microsomes” value [2] was 71-86% and the “metabolized in mouse plasma” value [3] was under 30%.
